Assay results: PubChem BioAssay AID360 (National Center for Advancing Translational Sciences (NCATS), 2006)
In all, about 48,000 compounds went through this assay and about 550 (1.1%) were called active. Roughly 4% stayed inconclusive and do not appear here. Rule as the data show it: active = potency below about 15 µM; inconclusive = mostly about 16 µM to 33 µM; inactive = weaker than that. Some of the results follow.

These molecules were tested against Lysosomal acid glucosylceramidase (Homo sapiens) (UniProt P04062) (assay: Glucocerebrosidase). Details: purified enzyme, resorufin glucoside fluorescence (screen aimed at inhibitors), 20 min; series mostly up to 77 µM.
Sequence of UniProt P04062 (P04062 whole entry, looked up): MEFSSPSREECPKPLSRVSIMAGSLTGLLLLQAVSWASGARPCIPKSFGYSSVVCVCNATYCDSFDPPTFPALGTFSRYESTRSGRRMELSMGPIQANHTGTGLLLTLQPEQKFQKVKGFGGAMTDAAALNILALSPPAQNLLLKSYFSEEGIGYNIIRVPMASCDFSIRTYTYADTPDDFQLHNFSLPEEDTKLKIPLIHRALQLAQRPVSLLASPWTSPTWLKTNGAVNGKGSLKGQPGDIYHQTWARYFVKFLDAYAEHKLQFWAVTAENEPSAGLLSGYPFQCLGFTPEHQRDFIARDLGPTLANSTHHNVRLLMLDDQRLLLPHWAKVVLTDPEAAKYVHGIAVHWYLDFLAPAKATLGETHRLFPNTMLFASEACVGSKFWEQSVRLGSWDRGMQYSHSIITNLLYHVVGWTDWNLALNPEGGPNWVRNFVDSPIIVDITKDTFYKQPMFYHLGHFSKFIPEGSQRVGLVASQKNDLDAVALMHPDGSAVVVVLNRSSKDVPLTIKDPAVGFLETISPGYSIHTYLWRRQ
Procedure, shortened: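 Normal human glucocerebrosidase (0.2 nM final) was assayed with resorufin β-D-glucopyranoside (30 uM final) in 50mM citric acid/KH2PO4, 10mM sodium taurocholate, 0.01% tween-20, pH 5.9. Compounds were titrated; fluorescence (Ex 548, Em 600) read after 20 min at RT.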
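Also: the screen sought inhibitors.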
Potency is read from the fitted curve at half-maximal effect.

Potency, inactive:
C=CCOC(=O)C1=C(C)Nc2nc3ccccc3n2C1c1ccncc1 (stereo not drawn) > 76.9 µM
COc1ccc(S(=O)(=O)N(C)c2ccc(C(=O)N3CCC(C(N)=O)CC3)cc2)cc1 > 76.9 µM
COc1cc(C2C(C#N)=C(N)Oc3cc(C)oc(=O)c32)ccc1OC(=O)N1CCOCC1 (stereo not drawn) > 76.9 µM
COC(=O)c1cc(COC(=O)c2ccc3ccccc3n2)oc1C > 76.9 µM
O=C(O)c1cnc2ccccc2n1 > 76.9 µM
O=C(COC(=O)Cc1cn2ccsc2n1)Nc1nc2ccccc2s1 > 76.9 µM
CC1S/C(=C(\C#N)C(=O)NCc2ccco2)N(c2ccc(F)cc2)C1=O (stereo not drawn) > 76.9 µM
CCOC(=O)Cc1csc(NC(=O)CSc2nnnn2-c2ccc(CC)cc2)n1 > 76.9 µM
CC(=O)Nc1ccccc1NC(=O)CC(C)(C)C > 76.9 µM
CN(C)c1nc2c(c(=O)n(C)c(=O)n2C)n1Cc1ccccc1 > 76.9 µM
CCOC(=O)Cc1[nH]nc2c1C(C1C=CCCC1)C(C#N)=C(N)O2 (stereo not drawn) > 76.9 µM
CCCCn1c(SCc2cccnc2)nc2c1c(=O)n(C)c(=O)n2C > 76.9 µM
Cc1nn(C)c(C)c1S(=O)(=O)N1CCC(C(=O)NC2CCCCC2)CC1 > 76.9 µM
Cc1cc(NC(=O)CCC(=O)N(c2ccccc2)C(C(=O)NCC2CCCO2)c2cccnc2)no1 (stereo not drawn) > 76.9 µM
c1ccc(NC2=Nc3ccccc3CS2)cc1 > 76.9 µM
COc1cccc(NC(=O)COc2ccccc2C(N)=O)c1 > 76.9 µM
Cc1ccccc1-c1nc(CN2CCCC(C(=O)NCCCN3CCOCC3)C2)c(C)o1 (stereo not drawn) > 76.9 µM
Cc1ccc(S(=O)(=O)N2CCN(C(=O)CSc3nc4ccccc4c(=O)[nH]3)CC2)cc1 > 76.9 µM
O=C(CSc1nnnn1C1CCCCC1)NCCc1ccccc1 > 76.9 µM
Cc1cc(NC(c2cccnc2)c2ccc3cccnc3c2O)no1 (stereo not drawn) > 76.9 µM
CCC(C)NC(=O)CCS(=O)(=O)c1ccc(Br)s1 (stereo not drawn) > 76.9 µM
CCOc1ccc2nc(N3CCCN(C(=O)Nc4ccccc4C)CC3)c(C#N)cc2c1 > 76.9 µM
CCCC1=C(C(=O)OCC)C(c2ccc(NC(C)=O)cc2)NC(=O)N1 (stereo not drawn)
Fc1ccccc1OCCCN1CCOCC1 > 76.9 µM
COCCN1C(=O)N(c2cccc(C)c2)C(=O)C1CC(=O)Nc1ccc(F)cc1 (stereo not drawn) > 76.9 µM
Cc1nn2c(-c3cccc(NC(=O)CSc4nc5ccccc5o4)c3)nnc2c2ccccc12 > 76.9 µM
CC1(C)CC(=O)C=C(Nc2ccc(C(=O)O)cc2)C1 > 76.9 µM
CCOCCCNC(=O)CCNC(=O)c1cc(OC)c(OC)c(OC)c1 > 76.9 µM
CN(c1ccc(Cl)cc1)c1cc(=O)n(C)c2ccccc12 > 76.9 µM
O=C(CCSc1ccccc1)Nc1ccc(S(=O)(=O)N2CCOCC2)cc1 > 76.9 µM
O=C(Nc1nccs1)c1ccc(Br)o1 > 76.9 µM
CCN(CC)C(=O)C1CC(=O)N(c2ccc(F)c(Cl)c2)C1 (stereo not drawn) > 76.9 µM
Cc1c(NC(=O)CSc2nnc(-c3cccc(Cl)c3)o2)c(=O)n(-c2ccccc2)n1C > 76.9 µM
Cc1cccc(NC(=O)C2CCN(c3nccc(C)n3)CC2)c1 > 76.9 µM
O=C(CCCn1c(=O)[nH]c2cc(Cl)ccc2c1=O)NCCCN1CCCC1=O > 76.9 µM
CCCn1c(=NC(=O)c2ccc3c(c2)OCO3)c(C#N)cc2c(=O)n3cccc(C)c3nc21 > 76.9 µM
CCc1nc(N2CCOCC2)c(C#N)c2c1COC(C)(C)C2 > 76.9 µM
O=C(CCCc1nc(-c2ccccc2Cl)no1)NC1CCCCC1 > 76.9 µM
CCc1c(O)nc(SCC(=O)Nc2ccccc2)n(-c2ccccc2)c1=O > 76.9 µM
CCc1nc(C)cn1S(=O)(=O)c1cc(Br)ccc1OC > 76.9 µM
Cc1cc(C)n(CCn2nc(C)cc2C)n1 > 76.9 µM
Cc1cc(C)c2c(=O)[nH]c(=O)n(Cc3ccccc3)c2n1 > 76.9 µM
Cc1cc(-n2c(=O)c(C#N)cc3c(=O)n4cccc(C)c4nc32)no1 > 76.9 µM
O=C1Cn2c(nc3ccccc32)N1c1ccccc1F > 76.9 µM
CCN(CC)CCn1cnc2c([nH]c3cccc(OC)c32)c1=O > 76.9 µM
O=C(NC1CCCC1)c1ccc(COCC(F)(F)C(F)F)o1 > 76.9 µM
O=C(c1cccs1)N1CCN(C/C=C/c2ccccc2)CC1 > 76.9 µM
CCN(CC)CCCN1C(=O)C(=O)/C(=C(/O)c2cc(C)ccc2C)C1c1cccnc1 (stereo not drawn) > 76.9 µM
CSc1nnc(-c2cccs2)n1-c1ccccc1 > 76.9 µM
CCOc1ccc(C2=[N+]([O-])C(C)(C)N(O)C2(C)C)cc1 > 76.9 µM
COc1ccccc1C(=O)NCCc1nc2ccccc2[nH]1 > 76.9 µM
CC(C)C(NS(=O)(=O)c1ccc2c(c1)OCCO2)C(=O)NCCc1ccccn1 (stereo not drawn) > 76.9 µM
Cc1ccc(S(=O)(=O)Nc2nncs2)cc1 > 76.9 µM
Cc1ccc(-c2[nH]c(=O)n3ccncc23)s1 > 76.9 µM
COc1ccc(N2CCN(C(=O)Cn3nnc(-c4ccc(OC)c(OC)c4)n3)CC2)cc1 > 76.9 µM
O=C(c1ccccc1F)N(Cc1ccc(F)cc1)C1CCS(=O)(=O)C1 (stereo not drawn) > 76.9 µM
CC(C)(C)c1cc(C(=O)N2CCc3ccccc32)ccn1 > 76.9 µM
CCCCCCOC(=O)C(C#N)c1nc2ccccc2nc1N1CCCCC1 (stereo not drawn) > 76.9 µM
